Results from paper PMC4336329 (PLoS ONE, 2015).
Among all 310,000 compounds or so, about 2,200 (0.71%) showed an effect of 50% or more. Effects have a minus sign here. The list shows a part of the results.

biological target: human ether-à-go-go-related gene (hERG) potassium channel (human, UniProt Q12809); test: primary screen, population patch clamp on CHO cells stably expressing hERG
Sequence (Q12809 whole entry, looked up): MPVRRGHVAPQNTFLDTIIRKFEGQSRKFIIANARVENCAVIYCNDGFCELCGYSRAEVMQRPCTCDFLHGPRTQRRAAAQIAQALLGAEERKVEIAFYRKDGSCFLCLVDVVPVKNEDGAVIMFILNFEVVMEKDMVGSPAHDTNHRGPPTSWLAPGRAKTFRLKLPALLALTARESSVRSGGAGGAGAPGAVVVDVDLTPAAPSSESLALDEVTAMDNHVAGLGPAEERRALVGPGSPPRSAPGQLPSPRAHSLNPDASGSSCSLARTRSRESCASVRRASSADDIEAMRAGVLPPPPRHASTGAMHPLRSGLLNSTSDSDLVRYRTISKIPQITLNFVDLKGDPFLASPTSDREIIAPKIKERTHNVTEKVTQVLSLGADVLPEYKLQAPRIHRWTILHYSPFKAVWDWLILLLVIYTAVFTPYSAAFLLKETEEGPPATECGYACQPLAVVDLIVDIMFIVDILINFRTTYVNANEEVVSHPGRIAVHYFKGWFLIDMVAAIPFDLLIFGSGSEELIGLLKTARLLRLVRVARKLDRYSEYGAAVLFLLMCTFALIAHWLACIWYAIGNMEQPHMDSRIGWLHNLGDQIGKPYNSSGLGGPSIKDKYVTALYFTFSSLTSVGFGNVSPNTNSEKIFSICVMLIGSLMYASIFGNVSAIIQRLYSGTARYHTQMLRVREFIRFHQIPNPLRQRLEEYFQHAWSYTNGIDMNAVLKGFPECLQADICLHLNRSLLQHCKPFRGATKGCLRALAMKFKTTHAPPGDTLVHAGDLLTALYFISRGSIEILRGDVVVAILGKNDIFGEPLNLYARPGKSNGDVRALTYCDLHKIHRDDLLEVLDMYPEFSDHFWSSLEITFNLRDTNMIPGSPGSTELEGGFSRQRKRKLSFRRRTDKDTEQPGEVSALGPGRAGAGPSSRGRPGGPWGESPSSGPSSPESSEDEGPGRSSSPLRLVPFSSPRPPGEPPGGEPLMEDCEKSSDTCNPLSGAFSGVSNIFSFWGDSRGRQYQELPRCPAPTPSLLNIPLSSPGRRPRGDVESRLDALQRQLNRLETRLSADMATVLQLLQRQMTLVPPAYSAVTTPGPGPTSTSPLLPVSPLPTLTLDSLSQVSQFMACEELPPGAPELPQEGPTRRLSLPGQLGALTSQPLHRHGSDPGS

Row | SMILES | hERG current change (%, negative = inhibition) at 1uM [%]
1 | CCC(=O)Nc1cccc(-c2cn3cccc(C)c3n2)c1 | 3.61
2 | COc1cccc(CC(=O)Nc2cc(S(=O)(=O)N3CCCCC3)ccc2C)c1 | 9.63
3 | COc1ccc(CCNc2cn[nH]c(=O)c2Cl)cc1OC | 14.4
4 | Cn1nc(C(=O)NC2CCCCC2)c2c1-c1ccccc1SC2 | 7.79
5 | COc1ccc(N2CCN(CC(=O)c3c[nH]c4ccccc34)CC2)cc1 | 9.51
6 | CCC(C(=O)Nc1nnc(-c2ccco2)s1)c1ccccc1 (stereo not shown) | 11.4
7 | NC(=O)C1(N2CCCCC2)CCN(C(=O)c2ccc(C#Cc3ccccc3)o2)CC1 | -3.33
8 | CCCCOc1ccc(C(=O)Oc2cccnc2)cc1 | 14
9 | O=C(COC(=O)CNC(=O)c1ccccc1F)Nc1cccnc1Cl | 8.22
10 | O=C(Nc1cccc(C(=O)O)c1)/C(=C\c1ccccc1)NC(=O)c1cccc2ccccc12 | 13.5
11 | COc1ccc(-n2ncc3c(=O)n(CC(C)=O)cnc32)cc1 | 15.6
12 | COc1ccc(C(=O)NCCNc2nc3c(C)cccc3cc2C#N)cc1 | 8.93
13 | CCc1nc(C)c(C(=O)N2CCCC(C(=O)Nc3cccc(-c4cccc(C)c4)c3)C2)o1 (stereo not shown) | 10.3
14 | Cc1ccc(NC(=O)Cn2cc(S(=O)(=O)c3ccc(F)cc3)c(=O)c3cc(F)ccc32)cc1 | 8.72
15 | Clc1ccc(Cn2ncc3c(N4CCOCC4)ncnc32)cc1 | 0.839
16 | Cc1c(C(C)CCCO)oc(=O)c2c1Oc1c(C)c(C(C)C[C@H](C)O)oc(=O)c1C2 (stereo partly shown) | 13.7
17 | O=C(c1ccc(CS(=O)(=O)c2ccc(Br)cc2)o1)N1CCC2(CC1)OCCO2 | 7.58
18 | CN1CCCC1C(O)(c1ccccc1)c1ccccc1.Cl (stereo not shown) | 6.46
19 | O=C(Nc1cccc2ccccc12)C1CCN(C(=O)Cc2ccccc2)CC1 | -9.15
20 | COc1ccc(C(C(=O)NCc2ccccc2)N(Cc2ccco2)C(=O)c2snc(C(N)=O)c2N)cc1 (stereo not shown) | -5.54
21 | CCOC(=O)Nc1n[nH]c(NC(=O)OCC)c1[N+](=O)[O-] | 10.3
22 | COC(=O)c1cc(S(=O)(=O)N2CCN(c3ccc(C(C)=O)cc3)CC2)cn1C | 12.5

Row | SMILES | hERG current change (%, negative = inhibition) at 1uM [%]
23 | CC(NC(=O)c1ccco1)C(=O)N1CCN(C(c2ccccc2)c2ccccc2)CC1 (stereo not shown) | 10.9
24 | CCCCN1CC(O)=C(c2nc(-c3ccc(Cl)cc3)cs2)C1=N | 7.62
25 | COc1ccc(S(=O)(=O)N2CCOC23CCN(S(=O)(=O)c2cc(C)ccc2OC)CC3)cc1 | 22.6
26 | C=CCNC(=S)NNc1nc2sc3c(c2c(=O)[nH]1)CC(C)(C)OC3 | 17.6
27 | CCN1CCN(S(=O)(=O)c2ccc(Cl)c(C(=O)Nc3ccccc3N3CCCC3)c2)CC1 | 7.91
28 | O=C(COc1ccccc1Cl)Nc1nc(-c2cccs2)cs1 | -0.0902
29 | CCN(CC)CCNC(=S)Nc1ccc(Cl)cc1 | 5.24
30 | Cc1ccc(-c2nnc(Cc3ccc([N+](=O)[O-])cc3)o2)cc1 | -37.6
31 | CC(C)OC(=O)CC1C(=O)NCCN1C(=S)NC(=O)c1cccs1 (stereo not shown) | 15
32 | CCCOc1ccc(Cc2c(O)nc(SC)[nH]c2=O)cc1 | 14
33 | O=C(NCC1CCCO1)c1cccc(S(=O)(=O)Nc2ccc(F)cc2)c1 (stereo not shown) | 7.95
34 | O=C(NCC1CCCN(Cc2ccccc2F)C1)c1cccc(C(F)(F)F)c1 (stereo not shown) | -9.44
35 | N#Cc1ccc(OCC(=O)NNC(=S)NC2CCCCC2)cc1 | 4.01
36 | CS(=O)(=O)c1ccc(Cl)c(NC(=O)CCCSc2ccccc2)c1 | 3.09
37 | COc1ccc(Cn2c(N)c(C#N)c3nc4ccccc4nc32)cc1OC | 13
38 | CCn1c(=O)c(C(=O)NC(C)c2ccccc2)c(O)c2ccccc21 (stereo not shown) | 16.7
39 | COc1cc(/C=N/Nc2ccc(Cl)nn2)cc(OC)c1O | 16.5
40 | Cc1ccc(-c2c(C)sc(=NC(=O)c3ccco3)n2C)cc1 | 11.4
41 | CCN1CCc2c(sc(NC(=O)C3COc4ccccc4O3)c2C(N)=O)C1.Cl (stereo not shown) | 2.54
42 | O=C(Cc1ccc([N+](=O)[O-])cc1)N/N=C/c1ccccc1F | 14.7
43 | CC1CCN(S(=O)(=O)c2ccc3[nH]cc(C(=O)NCCN4CCOCC4)c(=O)c3c2)CC1 | 11.5
44 | COc1ccc(C2CC(=O)c3c(C)nc(N4CCN(Cc5ccccc5)CC4)nc3C2)cc1OC (stereo not shown) | 12.9

Row | SMILES | hERG current change (%, negative = inhibition) at 1uM [%]
45 | O=C(NC(Cc1ccccc1)C(=O)O)/C(=C/c1cccc([N+](=O)[O-])c1)NC(=O)c1cccc(Br)c1 (stereo not shown) | 19.3
46 | O=C(NCc1nc2ccccc2[nH]1)c1cccs1 | 12.2
47 | CCOc1ccc(-n2nc3c(SCCN4CCCC4)nnc(C)c3c2C)cc1 | -21.4
48 | COc1cc(/C=N/NC(=O)c2cncc(Br)c2)cc([N+](=O)[O-])c1O | 24.5
49 | CCOC(=O)C(Sc1nnc2c3ccccc3n(CC)c2n1)C(=O)OCC | 11
50 | COc1ccc(C2=NOC(Cn3nc(C(=O)NCc4ccc5c(c4)OCO5)cc3-c3ccccc3)C2)cc1 (stereo not shown) | 9.73
51 | CSc1ccc(CN(C)CC(=O)N(C)CC(=O)Nc2ccccc2Br)cc1 | -4.81
52 | Cc1ccc(/C=C/C(=O)Nc2ccc([N+](=O)[O-])cc2)o1 | 6.39
53 | COC(=O)C1=C(c2ccc(Cl)c(C(F)(F)F)c2)C[C@@H]2CC[C@H]1N2C(=O)NCCO | 10.6
54 | Cc1ccc(N/N=C(\C#N)C(N)=S)c(C)c1 | 13.5
55 | c1ccc2c(c1)Cn1c-2nc2ccccc21 | -2.19
56 | CC(=O)c1ccc(OCCn2cnc3ccccc32)cc1 | -2.47
57 | O=C(CO/N=C1\CCCc2nonc21)Nc1ccc(Br)cc1 | 2.7
58 | CCOc1cccc(C2C(C(=O)c3ccc(C)o3)=C(O)C(=O)N2CCCn2ccnc2)c1 (stereo not shown) | -8.98
59 | Cc1cc(OCC(=O)NC(C)C)cc(C)c1Cl | 10.7
60 | O=C(Nc1ccccc1N1CCOCC1)c1ccc2c(c1)OCCO2 | 10
61 | Cc1ccccc1-n1nnnc1SCC(N)=O | 20.9
62 | COc1cc(C(=O)NNC(=O)NC2CCCCC2)cc(OC)c1OC | 2.65
63 | CN(C(=O)c1cc2c(=O)n3ccccc3nc2n1C)C1CCCCC1 | -9.03
64 | CCOc1ccc(Nc2nc(CC(=O)OC)cc(=O)[nH]2)cc1 | -0.749
65 | NNC(=O)C(Cc1cnc[nH]1)NC(=O)OCc1ccccc1 (stereo not shown) | 11.7
66 | COCCCNC(=O)C1=CCN(S(=O)(=O)c2ccc(C)cc2)CC1 | -4.01

Row | SMILES | hERG current change (%, negative = inhibition) at 1uM [%]
67 | CCOc1cc2[nH]c(=O)n(CCCN3CCN(c4ccc(OC)cc4)CC3)c(=O)c2cc1OCC | -19.2
68 | COc1cc2c(cc1OC)CN(C(=O)/C=C/c1ccc([N+](=O)[O-])cc1)CC2 | -18.4
69 | CS(=O)(=O)NCCNc1ccc(C(F)(F)F)cc1[N+](=O)[O-] | 6.16
70 | COC(=O)C1=C(C)N(c2cc(C)cc(C)c2)/C(=C/c2ccc(O)cc2)C1=O | 7.71
71 | O=c1[nH]c(-c2ccccc2)nc2ccccc12 | 15.7
72 | CC(=O)N(/C=C1\SC(=S)N(c2ccccc2)C1=O)c1ccccc1 | 1.77
73 | COC1CCCN(C(=O)c2ccc(OC3CCN(S(=O)(=O)N(C)C)CC3)cc2)C1 (stereo not shown) | 12.1
74 | CCSC1=C(C#N)C(c2ccccc2OC)CC(=O)N1 (stereo not shown) | 6.79
75 | CCN(CC)CCNC(=O)CCCCn1c(=S)[nH]c2c([nH]c3ccc(OC)cc32)c1=O | 20.4
76 | Cc1cc(C)cc(N(CC(=O)NC(C)C)C(=O)CCC(=O)Nc2ccccn2)c1 | 7.58
77 | COC(=O)c1ccccc1NC(=O)c1cnn2cccnc12 | 4.41
78 | C/C=C/C(=O)Nc1cccc(C(F)(F)F)c1 | 10.8
79 | COC(=O)c1cccnc1N1CCN(c2ccccc2F)CC1 | -10.4
80 | CCc1nc2ccc(C(=O)NCCCN3CCN(c4ccc(F)cc4)CC3)cc2nc1CC | -12.4
81 | Cc1cc(C)c(C2=NOC3C4CCC(C4)C23)c(C)c1 (stereo not shown) | 11.2
82 | Cc1ccccc1C(=O)NNC(=O)C(=O)N1CCCCC1 | 14.4
83 | CCNCc1cc(OCC)c(OCC(=O)NCCc2ccccc2)cc1Cl.Cl | 3.75
84 | Cc1cc(NC(=O)CSc2n[nH]c(=O)[nH]c2=O)ccc1Br | 18.9
85 | Cc1ccccc1-c1nc(CS(=O)(=O)CC(=O)NCCN2CCCC2)c(C)o1 | 7.89
86 | O=C(NNC(=O)C1CCN(C(=O)Nc2ccccc2)CC1)c1ccc([N+](=O)[O-])cc1 | 7.93
87 | Br.O=C(N=c1nc2ccccn2s1)c1ccccc1 | 19.4
88 | COc1cc(CN2CCC(n3nccc3NC(=O)c3ccccc3OC)CC2)ccc1F | -77.6
